Measurements published in the supplement of paper PMC3334620.
In all, about 33,000 sequences were measured (“E-score (-0.5 to 0.5)”: median about -0.013, highest 2% from about 0.3 on). This is one part of the list.

Each sequence was assayed against T1, Msn1 (UniProt P22148) (assay: PBM E-score (8-mer binding enrichment) (E-score (-0.5 to 0.5)); higher = stronger / more preferred TF binding; most listed sequences are background and not binding sites). Settings: protein concentration: 200 nM; construct: GST-full length.
T1 sequence: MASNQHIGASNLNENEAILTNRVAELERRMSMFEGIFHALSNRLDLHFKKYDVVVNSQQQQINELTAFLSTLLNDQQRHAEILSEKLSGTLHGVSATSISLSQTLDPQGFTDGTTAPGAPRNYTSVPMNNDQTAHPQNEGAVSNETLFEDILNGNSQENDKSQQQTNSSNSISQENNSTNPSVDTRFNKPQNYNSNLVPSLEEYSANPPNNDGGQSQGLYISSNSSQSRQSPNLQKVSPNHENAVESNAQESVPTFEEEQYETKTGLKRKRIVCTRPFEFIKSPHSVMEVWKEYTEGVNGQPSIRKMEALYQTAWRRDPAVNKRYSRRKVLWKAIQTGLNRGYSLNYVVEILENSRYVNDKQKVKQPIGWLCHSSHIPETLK
Method: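 Universal 'all 10-mer' protein binding microarrays (Agilent AMADID 015681) probed with GST-tagged S. cerevisiae TFs (full-length or DBD) made by in vitro transcription/translation (PURExpress), about 100-200 nM. Bound TF was detected with fluorescent anti-GST. Each ungapped 8-mer (which stands for itself and its reverse complement) is scored by the PBM enrichment score (E-score), a modified Wilcoxon-Mann-Whitney statistic from -0.5 to +0.5, computed with the Universal PBM Analysis Suite. Scale: above 0.35 generally sequence-specific binding.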

Sequence | PBM E-score
CACTCCTA | -0.075
CGTGGCGA | -0.00234
ATAAAAAA | 0.237
TCCGCACA | -0.0301
CTAAATTC | -0.0514
CGGTTCAC | -0.107
CCCGTTTC | -0.0123
ATGAACAT | 0.199
CAAACTAG | -0.06
CAGGATAG | -0.022
AGGTGCCC | -0.275
AGAAAGAG | -0.1
ATCTTGGC | 0.0935
GAACAGTC | -0.142
AAGTAATC | 0.00785
AGTGAAAG | -0.0712
ATTCTCGC | -0.175
CAAGGTCA | -0.112
CCATGCCA | -0.244
GATACGTA | 0.0976
ATCTTTCC | -0.0343
ATGTGTGA | 0.0323

Sequence | PBM E-score
AACATATC | 0.0631
GCTCGGGA | -0.112
CGGGAGAC | -0.0698
TCCAGGGA | -0.0453
ACAGGGCG | -0.0216
CACACTCC | -0.161
AAGGGCGA | -0.172
AGGAGCTG | -0.233
ATCCCGTG | 0.035
ACTCAGGC | -0.126
CCTGTCAA | -0.0852
AGCACCCT | -0.15
GTTATGTA | 0.0812
GGCATGGA | -0.0347
ATCCATTG | 0.0219
CTGAATGC | -0.115
AGCGCCAG | -0.168
CGGCTGTA | -0.0853
AAGATACC | 0.14
AACCGAAG | 0.044
AGACGTAA | 0.0947
CTCCTGAA | 0.0432

Sequence | PBM E-score
GCCCTGCA | -0.304
CCTGCGAG | -0.177
GCTAGACA | 0.212
GGATAGAA | 0.0986
CATTTTCG | 0.181
AAGGGCGT | -0.161
AGGTAACG | -0.133
CACTCTCG | -0.0442
ACCGAGAT | 0.22
TGATTAAA | 0.143
ACAGGCTA | -0.0867
ATTTTAAG | 0.131
CATCGCCC | -0.114
CTAAACTA | -0.0839
CGGTTACA | 0.0893
CATTACCC | 0.0272
CGTGATAG | 0.0377
TCGAATAA | 0.0777
CGCCCAAG | -0.157
CTCGGTCC | -0.0715
CCAGACAC | 0.0047
CGAGGGGC | -0.239

Sequence | PBM E-score
CCCACTCG | -0.125
ATTAGTTC | 0.0351
ACCTTTCC | -0.051
TAGGCTGA | -0.0437
AAAAGTTG | 0.0736
TAGGGCCA | -0.166
ACCGTCAG | -0.0901
CAAACTCA | -0.00805
CGCCAATC | -0.0945
CGCAGGAC | -0.139
CATATATG | 0.113
TACTTGGA | 0.281
ATACAGCA | 0.103
CAGCCGGG | -0.13
GTGACGGA | -0.0631
GGCCCTGA | -0.251
TATGTTAA | 0.0935
CGCGACTA | 0.0078
CGCTCTAA | -0.105
GACGAGAC | -0.0871
AAAAGACT | -0.169
AATGTCAT | 0.46

Sequence | PBM E-score
TAGAGTCA | -0.295
ATGCTCCC | -0.341
GTTTTCCA | 0.102
ACTAGCGG | -0.0482
GGTGAAGA | -0.0988
ATCGGACG | 0.00151
CAAGGAAA | -0.168
CTCTGAAC | -0.225
CGGATGAC | 0.0481
CGCATTGA | 0.0594
ATTCAGGG | -0.0252
CGCTTGAC | -0.059
CGTATTAC | -0.0341
GACCCTAA | -0.0466
GAGTTTAA | 0.134
ACTTCTTC | 0.0754
CCCCTCTA | -0.338
CCTGCTGA | 0.00102
AAGGTCAC | -0.18
TCAGAAAA | -0.0388
GAGCAAGC | -0.0784
AACTACAG | -0.12
